Assay results taken from PubChem BioAssay AID330 (DTP/NCI, 2004).
“And” between values parts separate entries of the source, which are not always exact repeats. Equal entries are not always repeated. Further values from the same series stand in other lists. Inconclusive results and toxic doses are left out.

Tested on: P388 leukemia ip, CD2F1 mice, survival T/C
Assay: NCI In Vivo Anticancer Drug Screen. Data for tumor model P388 Leukemia (intraperitoneal) in CD2F1 (CDF1) mice
Conditions: endpoint: median survival time, higher = longer survival
Procedure, shortened: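 Mice carrying the transplanted tumor received test compound or vehicle. Survival was recorded in each group, and the value is the treated-group measurement divided by that of the vehicle-treated control group.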

Q: Which results are given for `O=C1c2c(O)ccc(O)c2C(=O)c2c(NCCNCCO)ccc(NCCNCCO)c21`?
A: T/C (dose: 2.5 mg/kg/injection, schedule: Q01DX009 (ip), vehicle: water): 122 % of control and 93 % of control; T/C (dose: 2.5 mg/kg/injection, schedule: Q01DX009 (sc), vehicle: acid diluted with saline): 92 % of control; T/C (dose: 2.59 mg/kg/injection, schedule: Q04DX002 (ip), vehicle: water): 191 % of control; T/C (dose: 2.7 mg/kg/injection, schedule: Q04DX003 (ip), vehicle: saline): 283 % of control and 412 % of control; T/C (dose: 2.7 mg/kg/injection, schedule: Q04DX003 (ip), vehicle: water): 272 % of control and 330 % of control; T/C (dose: 3.0 mg/kg/injection, schedule: Q01DX001 (ip), vehicle: saline): 266 % of control; T/C (dose: 3.0 mg/kg/injection, schedule: Q01DX001 (iv), vehicle: saline): 158 % of control; T/C (dose: 3.0 mg/kg/injection, schedule: Q04DX002 (ip), vehicle: distilled water + Tween-80): 277 % of control; T/C (dose: 3.0 mg/kg/injection, schedule: Q04DX002 (ip), vehicle: saline): 254 % of control; T/C (dose: 3.0 mg/kg/injection, schedule: Q04DX003 (ip), vehicle: saline): 362 % of control [middle of 4 runs]; T/C (dose: 3.0 mg/kg/injection, schedule: Q04DX003 (ip), vehicle: water): 150 % of control and 203 % of control; T/C (dose: 3.0 mg/kg/injection, schedule: Q04DX003 (iv), vehicle: saline): 187 % of control; T/C (dose: 3.13 mg/kg/injection, schedule: Q01DX009 (ip), vehicle: water): 90 % of control; T/C (dose: 3.2 mg/kg/injection, schedule: Q01DX009 (ip), vehicle: acid diluted with saline): 97 % of control; T/C (dose: 3.24 mg/kg/injection, schedule: Q01DX001 (ip), vehicle: saline): 560 % of control; T/C (dose: 3.24 mg/kg/injection, schedule: Q01DX001 (iv), vehicle: saline): 224 % of control; T/C (dose: 3.6 mg/kg/injection, schedule: Q01DX005 (ip), vehicle: saline): 96 % of control; T/C (dose: 3.6 mg/kg/injection, schedule: Q04DX002 (ip), vehicle: water): 215 % of control and 409 % of control; T/C (dose: 3.6 mg/kg/injection, schedule: Q04DX003 (ip), vehicle: saline): 250 % of control and 289 % of control; T/C (dose: 3.6 mg/kg/injection, schedule: Q04DX003 (iv), vehicle: saline): 97 % of control; T/C (dose: 4.0 mg/kg/injection, schedule: Q01DX005 (ip), vehicle: saline): 116 % of control; T/C (dose: 4.0 mg/kg/injection, schedule: Q01DX009 (ip), vehicle: water): 96 % of control [middle of 4 runs]; T/C (dose: 4.0 mg/kg/injection, schedule: Q04DX002 (ip), vehicle: water): 297 % of control and 390 % of control; T/C (dose: 4.0 mg/kg/injection, schedule: Q04DX003 (ip), vehicle: saline): 247 % of control and 266 % of control and 424 % of control; T/C (dose: 4.0 mg/kg/injection, schedule: Q04DX003 (ip), vehicle: water): 194 % of control and 330 % of control; T/C (dose: 4.32 mg/kg/injection, schedule: Q04DX002 (ip), vehicle: water): 217 % of control; T/C (dose: 4.4 mg/kg/injection, schedule: Q04DX003 (ip), vehicle: acid diluted with saline): 450 % of control; T/C (dose: 4.5 mg/kg/injection, schedule: Q01DX001 (ip), vehicle: acid diluted with saline): 571 % of control; T/C (dose: 4.5 mg/kg/injection, schedule: Q04DX003 (ip), vehicle: saline): 275 % of control; T/C (dose: 5.0 mg/kg/injection, schedule: Q01DX005 (ip), vehicle: water): 111 % of control; T/C (dose: 5.0 mg/kg/injection, schedule: Q04DX003 (ip), vehicle: saline): 432 % of control; T/C (dose: 5.4 mg/kg/injection, schedule: Q01DX001 (ip), vehicle: saline): 560 % of control; T/C (dose: 5.4 mg/kg/injection, schedule: Q01DX001 (iv), vehicle: saline): 203 % of control; T/C (dose: 6.0 mg/kg/injection, schedule: Q01DX001 (ip), vehicle: saline): 401 % of control; T/C (dose: 6.0 mg/kg/injection, schedule: Q01DX001 (iv), vehicle: saline): 178 % of control; T/C (dose: 6.0 mg/kg/injection, schedule: Q04DX002 (ip), vehicle: distilled water + Tween-80): 104 % of control; T/C (dose: 6.0 mg/kg/injection, schedule: Q04DX003 (ip), vehicle: saline): 231 % of control and 382 % of control; T/C (dose: 6.0 mg/kg/injection, schedule: Q04DX003 (iv), vehicle: saline): 212 % of control and 90 % of control; T/C (dose: 6.7 mg/kg/injection, schedule: Q01DX001 (ip), vehicle: acid diluted with saline): 514 % of control; T/C (dose: 6.7 mg/kg/injection, schedule: Q04DX003 (ip), vehicle: acid diluted with saline): 450 % of control; T/C (dose: 7.2 mg/kg/injection, schedule: Q04DX002 (ip), vehicle: water): 237 % of control; T/C (dose: 8.0 mg/kg/injection, schedule: Q04DX003 (ip), vehicle: saline): 180 % of control and 229 % of control; T/C (dose: 9.0 mg/kg/injection, schedule: Q01DX001 (ip), vehicle: saline): 439 % of control; T/C (dose: 9.0 mg/kg/injection, schedule: Q01DX001 (iv), vehicle: saline): 105 % of control; T/C (dose: 10.0 mg/kg/injection, schedule: Q01DX001 (ip), vehicle: other): 440 % of control; T/C (dose: 10.0 mg/kg/injection, schedule: Q04DX002 (ip), vehicle: water): 92 % of control; T/C (dose: 10.0 mg/kg/injection, schedule: Q04DX003 (ip), vehicle: saline): 93 % of control; T/C (dose: 12.0 mg/kg/injection, schedule: Q01DX001 (iv), vehicle: saline): 225 % of control; T/C (dose: 12.0 mg/kg/injection, schedule: Q04DX002 (ip), vehicle: saline): 108 % of control; T/C (dose: 12.0 mg/kg/injection, schedule: Q04DX003 (ip), vehicle: saline): 106 % of control and 117 % of control; T/C (dose: 24.0 mg/kg/injection, schedule: Q01DX001 (ip), vehicle: saline): 223 % of control; T/C (dose: 32.0 mg/kg/injection, schedule: Q01DX001 (iv), vehicle: acid diluted with saline): 90 % of control; T/C (dose: 32.0 mg/kg/injection, schedule: Q04DX003 (ip), vehicle: saline): 96 % of control and 107 % of control; T/C (dose: 64.0 mg/kg/injection, schedule: Q04DX003 (ip), vehicle: saline): 92 % of control and 90 % of control and 91 % of control; T/C (dose: 7.0 micrograms/kg/injection, schedule: Q04DX003 (ip), vehicle: saline): 99 % of control; T/C (dose: 15.0 micrograms/kg/injection, schedule: Q04DX003 (ip), vehicle: saline): 94 % of control; T/C (dose: 31.0 micrograms/kg/injection, schedule: Q04DX003 (ip), vehicle: saline): 92 % of control; T/C (dose: 63.0 micrograms/kg/injection, schedule: Q04DX003 (ip), vehicle: saline): 102 % of control; T/C (dose: 125.0 micrograms/kg/injection, schedule: Q04DX003 (ip), vehicle: saline): 122 % of control; T/C (dose: 1000.0 micrograms/kg/injection, schedule: Q04DX003 (ip), vehicle: saline): 163 % of control; T/C (dose: 2000.0 micrograms/kg/injection, schedule: Q04DX003 (ip), vehicle: saline): 186 % of control; T/C (dose: 4000.0 micrograms/kg/injection, schedule: Q04DX003 (ip), vehicle: saline): 220 % of control; T/C (dose: 8000.0 micrograms/kg/injection, schedule: Q04DX003 (ip), vehicle: saline): 172 % of control
